According to the supplement of paper PMC3334620:
Over roughly 33,000 sequences, “E-score (-0.5 to 0.5)” has its median near -0.013; the highest 2% begin near 0.3. Some of the results follow.

target: T1, Msn1 (UniProt P22148); experiment: PBM E-score (8-mer binding enrichment) (E-score (-0.5 to 0.5)); higher = stronger / more preferred TF binding; most listed sequences are background and not binding sites; settings: protein concentration: 200 nM; construct: GST-full length
T1 sequence: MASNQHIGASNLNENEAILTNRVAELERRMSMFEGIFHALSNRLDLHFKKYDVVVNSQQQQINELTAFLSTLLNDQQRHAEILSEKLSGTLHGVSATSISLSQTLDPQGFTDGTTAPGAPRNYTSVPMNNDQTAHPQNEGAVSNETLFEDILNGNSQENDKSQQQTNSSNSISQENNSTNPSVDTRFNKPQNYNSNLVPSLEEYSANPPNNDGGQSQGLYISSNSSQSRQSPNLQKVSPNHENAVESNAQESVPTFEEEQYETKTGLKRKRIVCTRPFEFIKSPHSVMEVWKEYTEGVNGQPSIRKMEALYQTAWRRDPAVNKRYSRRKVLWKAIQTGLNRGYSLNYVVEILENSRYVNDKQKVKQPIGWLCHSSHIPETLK
Description: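 Universal 'all 10-mer' protein binding microarrays (Agilent AMADID 015681) probed with GST-tagged S. cerevisiae TFs (full-length or DBD) made by in vitro transcription/translation (PURExpress), about 100-200 nM. Bound TF was detected with fluorescent anti-GST. Each ungapped 8-mer (which stands for itself and its reverse complement) is scored by the PBM enrichment score (E-score), a modified Wilcoxon-Mann-Whitney statistic from -0.5 to +0.5, computed with the Universal PBM Analysis Suite. Scale: above 0.35 generally sequence-specific binding.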

| Sequence | PBM E-score |
| --- | --- |
| CTGCTTTC | 0.0972 |
| ATGGACAC | 0.437 |
| AGGTAGCG | 0.00657 |
| TACACATA | 0.0567 |
| AGGGCTGA | -0.2 |
| ACTGAACA | 0.0547 |
| GAGGATAA | -0.111 |
| AGCAAGAG | -0.121 |
| ACGCCGGC | 0.0705 |
| GCATATGC | -0.0698 |
| AACTTCTT | -0.0294 |
| AACATAGA | -0.021 |
| CATGTGAC | 0.025 |
| ACCGCAGG | 0.00015 |
| AGATGACC | -0.0211 |
| CTTAACCA | 0.133 |
| ATGAAGGC | -0.0558 |
| CGCAAGCA | -0.00584 |
| CGCCCTCA | -0.0601 |
| ACATGTAT | 0.312 |
| TAAACGAA | 0.143 |
| ACGCGAAT | 0.117 |
| GGACTAGA | 0.136 |
| AATGCGAG | 0.0646 |
| GCACCTAA | -0.134 |

| Sequence | PBM E-score |
| --- | --- |
| AGTCGGTG | -0.227 |
| CACGATGG | -0.0924 |
| TATTAACA | 0.214 |
| AGAAGTGG | -0.138 |
| AACAATCT | -0.0296 |
| AAGGTAAA | 0.0622 |
| ACCATTAT | -0.0314 |
| CGCGTCGC | 0.0974 |
| TGACATAA | 0.364 |
| AATAACTG | 0.172 |
| GCTCGAGC | 0.195 |
| ACAGGCTG | -0.27 |
| GACAAGGC | 0.19 |
| ACGGGAAA | 0.0885 |
| AGGGGGTG | -0.411 |
| ATAGGTCA | 0.228 |
| GAATTTAC | 0.0867 |
| ACAATGAC | 0.154 |
| CGCCTGAA | 0.101 |
| CTATTTCC | 0.063 |
| CAGACTGA | -0.0553 |
| ACATACGT | -0.0371 |
| CACACCCC | -0.293 |
| ACCCGGCG | -0.207 |
| TATATACA | 0.261 |

| Sequence | PBM E-score |
| --- | --- |
| AGCAGACT | 0.11 |
| CAAGGCAA | -0.083 |
| GGTACGTA | 0.058 |
| ACCCAAAA | 0.147 |
| GCCTTCGC | -0.098 |
| CGTGCGAA | 0.0365 |
| AGGGCGAT | -0.253 |
| CCATATCC | -0.0745 |
| ATGGTGGG | -0.316 |
| CGCGCAGA | 0.257 |
| TACTTACA | -0.158 |
| TAATGAAA | 0.226 |
| AGGACATC | 0.477 |
| CAGGCGAG | -0.147 |
| AACTCCTC | -0.228 |
| GCGGCATA | 0.0827 |
| GCCTACCC | -0.24 |
| ATCGGAAA | 0.172 |
| GTTCAAGA | -0.0249 |
| ATGGAGCA | -0.0884 |
| GCCCTACC | -0.387 |
| CCGCCGTC | -0.114 |
| CACACTAG | -0.0633 |
| ACGACGTG | 0.0937 |
| TGACAGCA | 0.192 |

| Sequence | PBM E-score |
| --- | --- |
| GGCTACAA | -0.12 |
| ACGAATGA | 0.0449 |
| CGACTTGA | -0.00646 |
| ACCAGTGA | -0.174 |
| CTAGCCTC | -0.345 |
| GAATTGAA | 0.0169 |
| CCACTGTA | -0.0172 |
| AATCGGAC | 0.136 |
| CAGCGGCA | -0.0537 |
| AAGTCCAC | 0.243 |
| GCGTATCA | 0.00071 |
| ACTGAGCG | -0.162 |
| GGCGTGAA | 0.0176 |
| AATTCAGC | -0.123 |
| ATCCTGGC | -0.12 |
| AGCACGAC | -0.0815 |
| AATTTTGT | 0.34 |
| CACAGTCC | -0.00839 |
| GAAAGGGA | -0.151 |
| GCACTAAC | -0.103 |
| AGCGGCTG | -0.22 |
| GAACTCAA | 0.0257 |
| CTGTGCTC | 0.0526 |
| CGGCAGAC | -0.0763 |
| AGCGGTTG | -0.0322 |

| Sequence | PBM E-score |
| --- | --- |
| ACCAACGG | -0.0412 |
| ATGGTGCC | -0.137 |
| AGCAGGGG | -0.372 |
| CAGTTATG | 0.0154 |
| AGGCGTCG | 0.0157 |
| CCCCGCCA | -0.0914 |
| AGTATGCG | -0.115 |
| GCACCCGA | -0.182 |
| AACGTGCT | -0.22 |
| AAATAATA | 0.146 |
| AGACTTAT | 0.134 |
| TGTGCTAA | -0.03 |
| GGACTTTA | 0.328 |
| AACTCTCG | 2e-05 |
| AACCTTAG | -0.0966 |
| GGACCCGA | -0.127 |
| GTGACAAA | 0.423 |
| TCGTGAAA | 0.15 |
| TAAATACA | 0.079 |
| AAATATAC | 0.0952 |
| AACTAGTT | 0.116 |
| GTTCTCCA | -0.0125 |
| CGACCAAA | 0.113 |
| CGTATGGA | 0.0784 |
| TAGGTGGA | 0.166 |

| Sequence | PBM E-score |
| --- | --- |
| CCATATAG | -0.105 |
| GGATCATA | -0.0918 |
| ATTAATGG | 0.216 |
| ATATACCA | -0.00333 |
| GCTGAGTA | 0.068 |
| ACTCGTAC | -0.0875 |
| GGCTAACA | -0.0889 |
| CCAACTGG | -0.0262 |
| ATTAACTA | 0.0161 |
| ATACCGAC | 0.0938 |
| GGTGAACC | -0.0638 |
| CCCCGATA | 0.0947 |
| CTCGTGGC | -0.0934 |
| AGTCTATC | -0.104 |
| CCCTTAAG | 0.0259 |
| AGTTAGAA | 0.146 |
| CCGGTGTA | -0.14 |
| AACGGCCT | -0.222 |
| CCTAAGTA | 0.0589 |
| CTAAAAGA | 0.00238 |
| ATCCGATC | 0.15 |
| ACAACATC | 0.0825 |
| TATATTGA | 0.0589 |
| GCTTATCA | -0.161 |
| AATAACGC | -0.131 |

| Sequence | PBM E-score |
| --- | --- |
| CGATCCAA | -0.12 |
| ATCGAATG | 0.0136 |
| CTATGTAA | -0.0283 |
| AGCACTAT | -0.0501 |
| CACACTTA | 0.036 |
| GAGGAGTA | -0.116 |
| GCAACGTA | -0.221 |
| AGTGGCTG | 0.0171 |
| AGGCCTGA | -0.00674 |
| CGGAGTTA | -0.0117 |
| GTTCTAAA | 0.153 |
| TCGAGGAA | -0.0647 |
| GCCTACAA | -0.0308 |
| AACACTTG | -0.0167 |
| CCCCGAGA | -0.0201 |
| GATGATTA | -0.0758 |
| CGTCCGCA | -0.015 |
| ACGTTTCC | -0.122 |
| CGCTCCAA | -0.107 |
| CGCTCGTC | -0.0118 |
| ACTGCACG | -0.102 |
| AACCGATG | 0.00644 |
